# Laboratory results taken from the supplement of paper PMC8728848.
# The other results are listed elsewhere or left out.
# B1: F17eG (Escherichia coli), Q9RH92 (protein)
# chain: MTNFYKVFLAVFILVCCNISHAAVSFIGSTENDVGPSQSSYSRTHAMDNLPFVYNTGYNIGYQNANVWRISGGFCVGLDGKVDLPVVGSLDGQSIYGLTEEVGLLIWMGDTNYSRGTAMSGNSWENVFSGWCVGNYVSTQGLSVHVRPVILKRNSSAQYSVQKTSIGSIRMRPYNGSSAGSVQTTVNFSLNPFTLNDTVTSCRLLTPSAVNVSLAAISAGQLPSSGDEVVAGTTSLKLQCDAGVTVWATLTDATTPSNRSDILTLTGASTATGVGLRIYKNTDSTPLKFGPDSPVKGNENQWQLSTGTETSPSVRLYVKYVNTGEGINPGTVNGISTFTFSYQ
# Key:
# Experiment in all cases: glycan array binding signal (z-score within array); higher = stronger binding
# Settings in all cases: glycan notation: IUPAC condensed, linker removed
# [1] = target: Neu5Ac(a2-3)Gal(b1-3)[Neu5Ac(a2-6)]GalNAc
# Procedure, shortened: (§1)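 The binding signal is a Z-score computed within each array. Data were drawn from 3228 arrays in the Consortium for Functional Glycomics database, restricted to those with a known protein sequence. Scores were averaged over arrays of the same protein sequence at different concentrations or buffers, and over linkers, and negative values can be taken as non-binding.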
# Neu5Ac(a2-3)Gal(b1-4)Glc = target: Neu5Ac(a2-3)Gal(b1-4)Glc
# Procedure, shortened: as §1
# [2] = target: Neu5Ac(a2-3)Gal(b1-4)GlcNAc
# Procedure, shortened: as §1
# [3] = target: Neu5Ac(a2-3)Gal(b1-4)GlcNAc(b1-2)Man(a1-3)[Neu5Ac(a2-3)Gal(b1-4)GlcNAc(b1-2)Man(a1-6)]Man(b1-4)GlcNAc(b1-4)GlcNAc
# Procedure, shortened: as §1
# [4] = target: Neu5Ac(a2-3)Gal(b1-4)GlcNAc(b1-3)Gal(b1-4)GlcNAc
# Procedure, shortened: as §1
# [5] = target: Neu5Ac(a2-3)Gal(b1-4)GlcNAc(b1-3)Gal(b1-4)GlcNAc(b1-3)Gal(b1-4)GlcNAc
# Procedure, shortened: as §1
# [6] = target: Neu5Ac(a2-3)Gal(b1-4)GlcNAc(b1-3)Gal(b1-4)[Fuc(a1-3)]GlcNAc
# Procedure, shortened: as §1
# [7] = target: Neu5Ac(a2-3)Gal(b1-4)GlcNAc6S
# Procedure, shortened: as §1
# [8] = target: Neu5Ac(a2-3)Gal(b1-4)[Fuc(a1-3)]GlcNAc
# Procedure, shortened: as §1
# [9] = target: Neu5Ac(a2-3)Gal(b1-4)[Fuc(a1-3)]GlcNAc(b1-3)Gal
# Procedure, shortened: as §1
# [10] = target: Neu5Ac(a2-3)Gal(b1-4)[Fuc(a1-3)]GlcNAc(b1-3)Gal(b1-4)GlcNAc
# Procedure, shortened: as §1
# [11] = target: Neu5Ac(a2-3)Gal(b1-4)[Fuc(a1-3)]GlcNAc(b1-3)Gal(b1-4)[Fuc(a1-3)]GlcNAc(b1-3)Gal(b1-4)[Fuc(a1-3)]GlcNAc
# Procedure, shortened: as §1
# [12] = target: Neu5Ac(a2-3)Gal(b1-4)[Fuc(a1-3)]GlcNAc6S
# Procedure, shortened: as §1
# [13] = target: Neu5Ac(a2-3)Gal6S(b1-4)GlcNAc
# Procedure, shortened: as §1
# [14] = target: Neu5Ac(a2-3)Gal6S(b1-4)[Fuc(a1-3)]GlcNAc
# Procedure, shortened: as §1
# Neu5Ac(a2-3)GalNAc = target: Neu5Ac(a2-3)GalNAc
# Procedure, shortened: as §1
# [15] = target: Neu5Ac(a2-3)GalNAc(b1-4)GlcNAc
# Procedure, shortened: as §1
# [16] = target: Neu5Ac(a2-3)[GalNAc(b1-4)]Gal(b1-4)Glc
# Procedure, shortened: as §1
# [17] = target: Neu5Ac(a2-3)[GalNAc(b1-4)]Gal(b1-4)GlcNAc
# Procedure, shortened: as §1
# [18] = target: Neu5Ac(a2-3)[Neu5Ac(a2-6)]GalNAc
# Procedure, shortened: as §1
# Neu5Ac(a2-6)Gal = target: Neu5Ac(a2-6)Gal
# Procedure, shortened: as §1
# Neu5Ac(a2-6)Gal(b1-4)Glc = target: Neu5Ac(a2-6)Gal(b1-4)Glc
# Procedure, shortened: as §1
# [19] = target: Neu5Ac(a2-6)Gal(b1-4)GlcNAc
# Procedure, shortened: as §1
# [20] = target: Neu5Ac(a2-6)Gal(b1-4)GlcNAc(b1-3)Gal(b1-4)GlcNAc
# Procedure, shortened: as §1
# [21] = target: Neu5Ac(a2-6)Gal(b1-4)GlcNAc(b1-3)Gal(b1-4)[Fuc(a1-3)]GlcNAc(b1-3)Gal(b1-4)[Fuc(a1-3)]GlcNAc
# Procedure, shortened: as §1
# [22] = target: Neu5Ac(a2-6)Gal(b1-4)GlcNAc6S
# Procedure, shortened: as §1
# Neu5Ac(a2-6)GalNAc = target: Neu5Ac(a2-6)GalNAc
# Procedure, shortened: as §1
# [23] = target: Neu5Ac(a2-6)GalNAc(b1-4)GlcNAc
# Procedure, shortened: as §1
# Neu5Ac(a2-8)Neu5Ac = target: Neu5Ac(a2-8)Neu5Ac
# Procedure, shortened: as §1
# [24] = target: Neu5Ac(a2-8)Neu5Ac(a2-3)Gal(b1-4)Glc
# Procedure, shortened: as §1
# [25] = target: Neu5Ac(a2-8)Neu5Ac(a2-3)[GalNAc(b1-4)]Gal(b1-4)Glc
# Procedure, shortened: as §1
# [26] = target: Neu5Ac(a2-8)Neu5Ac(a2-8)Neu5Ac
# Procedure, shortened: as §1
# [27] = target: Neu5Ac(a2-8)Neu5Ac(a2-8)Neu5Ac(a2-3)Gal(b1-4)Glc
# Procedure, shortened: as §1
# [28] = target: Neu5Ac(a2-8)Neu5Ac(a2-8)Neu5Ac(a2-3)[GalNAc(b1-4)]Gal(b1-4)Glc
# Procedure, shortened: as §1
# [29] = target: Neu5Ac(a2-8)Neu5Ac(a2-8)Neu5Ac(a2-8)Neu5Ac(a2-3)[GalNAc(b1-4)]Gal(b1-4)Glc
# Procedure, shortened: as §1
# Neu5Ac(b1-6)GalNAc = target: Neu5Ac(b1-6)GalNAc
# Procedure, shortened: as §1
# [30] = target: Neu5Ac(b2-6)Gal(b1-4)GlcNAc
# Procedure, shortened: as §1
# [31] = target: Neu5Ac9Ac(a2-6)Gal(b1-4)GlcNAc
# Procedure, shortened: as §1
# [32] = target: Neu5Gc(a2-3)Gal(b1-3)GlcNAc
# Procedure, shortened: as §1
# [33] = target: Neu5Gc(a2-3)Gal(b1-3)[Fuc(a1-4)]GlcNAc
# Procedure, shortened: as §1
# Neu5Gc(a2-3)Gal(b1-4)Glc = target: Neu5Gc(a2-3)Gal(b1-4)Glc
# Procedure, shortened: as §1
# [34] = target: Neu5Gc(a2-3)Gal(b1-4)GlcNAc
# Procedure, shortened: as §1
# [35] = target: Neu5Gc(a2-3)Gal(b1-4)[Fuc(a1-3)]GlcNAc
# Procedure, shortened: as §1
# [36] = target: Neu5Gc(a2-6)Gal(b1-4)GlcNAc
# Procedure, shortened: as §1
# Neu5Gc(a2-6)GalNAc = target: Neu5Gc(a2-6)GalNAc
# Procedure, shortened: as §1
binder,measurement,setting,value
B1,glycan array binding signal (z-score),[1],-0.295
same,glycan array binding signal (z-score),Neu5Ac(a2-3)Gal(b1-4)Glc,-0.313
same,glycan array binding signal (z-score),[2],-0.298
same,glycan array binding signal (z-score),[3],-0.307
same,glycan array binding signal (z-score),[4],-0.245
same,glycan array binding signal (z-score),[5],-0.303
same,glycan array binding signal (z-score),[6],-0.24
same,glycan array binding signal (z-score),[7],-0.317
same,glycan array binding signal (z-score),[8],-0.317
same,glycan array binding signal (z-score),[9],-0.317
same,glycan array binding signal (z-score),[10],-0.304
same,glycan array binding signal (z-score),[11],-0.297
same,glycan array binding signal (z-score),[12],-0.313
same,glycan array binding signal (z-score),[13],-0.312
same,glycan array binding signal (z-score),[14],-0.085
same,glycan array binding signal (z-score),Neu5Ac(a2-3)GalNAc,-0.318
same,glycan array binding signal (z-score),[15],-0.311
same,glycan array binding signal (z-score),[16],-0.298
same,glycan array binding signal (z-score),[17],-0.306
same,glycan array binding signal (z-score),[18],-0.208
same,glycan array binding signal (z-score),Neu5Ac(a2-6)Gal,-0.314
same,glycan array binding signal (z-score),Neu5Ac(a2-6)Gal(b1-4)Glc,-0.308
same,glycan array binding signal (z-score),[19],-0.197
same,glycan array binding signal (z-score),[20],-0.305
same,glycan array binding signal (z-score),[21],-0.299
same,glycan array binding signal (z-score),[22],-0.307
same,glycan array binding signal (z-score),Neu5Ac(a2-6)GalNAc,-0.31
same,glycan array binding signal (z-score),[23],-0.212
same,glycan array binding signal (z-score),Neu5Ac(a2-8)Neu5Ac,-0.32
same,glycan array binding signal (z-score),[24],-0.287
same,glycan array binding signal (z-score),[25],-0.321
same,glycan array binding signal (z-score),[26],-0.317
same,glycan array binding signal (z-score),[27],-0.318
same,glycan array binding signal (z-score),[28],-0.278
same,glycan array binding signal (z-score),[29],-0.31
same,glycan array binding signal (z-score),Neu5Ac(b1-6)GalNAc,-0.287
same,glycan array binding signal (z-score),[30],-0.318
same,glycan array binding signal (z-score),[31],-0.302
same,glycan array binding signal (z-score),[32],-0.31
same,glycan array binding signal (z-score),[33],-0.286
same,glycan array binding signal (z-score),Neu5Gc(a2-3)Gal(b1-4)Glc,-0.299
same,glycan array binding signal (z-score),[34],-0.293
same,glycan array binding signal (z-score),[35],-0.31
same,glycan array binding signal (z-score),[36],-0.16
same,glycan array binding signal (z-score),Neu5Gc(a2-6)GalNAc,-0.309
